This note sets out measurements from the supplement of paper PMC12632987.

The full ranking holds about 2,300 sequences; the median of “median log2 fold change of GCK-ALFA target abundance (FLAG IP / Myc IP barcode read proportion)” is about 0.095, and the lowest 2% start at about -0.47. This is one part of the list.

First the molecules themselves.
B1: LC3A_3_1896 (protein)
chain: LEEELEETLKLLKEKGASEEVLKKFKEVVELLLERGYEEAAKTLIEEVKELADASDEILLWFLEEVLEVIENEDLDEEELIKRIKEIARTAKSEAEIEEL
B2: LC3A_3_1630 (protein)
chain: MEEKVEETLKELKEAGHSEETLEAFREVAELLMEKGYEKALETLIEEVRELKDLPSELLLAMLEEILETIKTEDLNEEELIKKIKEIARVAKNEGEIIEL
B3: LC3A_17_564 (protein)
chain: MEEIKKEIEELIKELKKLIKELEKYDPEAAKEVEKLLKKAEEALKEGKLKEAAKYLEKAFDLAADKFEELSEKYNGKFSNEEMLANGLELRAIGIIEKLE
B4: LC3A_132_247 (protein)
chain: SEEELEKALEELKEILEKIVELLKAGKDPLPQIVKLEELAREIAKKLSLEETEKLVDEAIEYAEELFEKELDPNDEEARRTLDIIEMSLEGVLIEKELES
B5: LC3A_132_288 (protein)
chain: QEEKYKKLLEEAKKLVEEMKENIDDEEKVEKLLEELEKVMEEAKEKLSPELLAAFFEELEELLEELAEEFDEAGKEELALKADSLAIEAASLALRAKEEI
B6: LC3A_127_187 (protein)
chain: KKEELLKEIIKKADEAIEELSKPNYDKEKIKKLLEEMKKLAEEALKLDESFKPLLEDVKKAKELFEQLLKASPEEQESLRSLLIMLLEGIRIEAELLLLK
B7: LC3A_28_655 (protein)
chain: MSIEEIIEKALEEAKKAKEAGEPTVITITVSGDANEEDIERVIETLEEIAELLKDIKGSAIIIDLTGNLDEEYRDRLIDKAEELEEKYPNVTVIIAEEEE
B8: LC3A_3_1353 (protein)
chain: MEELIKEAVERLKAAGLSEKVVEAAERAMKALAKQGHEEAIKLLTEALLKHKDAPEEHLIKVLENLTKELEANPNLTEEEVKELVELADNDLAIEPLEEE
B9: LC3A_23_622 (protein)
chain: MYKVTVEADTIATPEEAEKYIKLVKEKVEEIKEKYKDKIEEVKLEIEREELPDGTVYLHITVTIIVKDDEELAQKLKNELVDFFDKNIPNGVISYEIEKL
B10: LC3A_28_766 (protein)
chain: MTIEEEVERAIEKAKEAKEKGEEAVIEIKVPDGATQEDVEVVIEGLEKIAEITKDMESVAIVIDVDGGVKQENLDKLAKKAEEIEKKYPNVTVIIALDEE
B11: LC3A_3_1455 (protein)
chain: IEKAKKELREILESNGADEETIEAAEKLLDALAKKGYEKAIEKVIEELKKMKNVPSEILKDMFEELLKIVETEDLSEEELIKKIEEEANAAKSEAEIIEL
B12: LC3A_free_0_2094 (protein)
chain: KTTVVEVVAISDKKVSEEDVKKIKEELEKLAKEIEKKYGAKVKVEVKDVDGRTVFTVTVEKEGLSIDEGLEIADEVADLLEEKFKELGIDATIYTSVYYE
B13: LC3A_28_1326 (protein)
chain: SHIEKELEKAEKEAEEALAAGEDALITIKIKPTTTVEEAKELMEKLEEIVEKYAPKQKISIIIDVESGVAQEVIDVIAEKAEEIEEKYPNVTVIIALDED
B14: LC3A_28_1144 (protein)
chain: SAGVEAAKAQIDADAEADKDEPEALLTATITSEATVEDVREIMEHVREIVEKLKHKEKIYVIINFEEPVSQEVLDEALRLGDEIEKEFPNVSVIVALPED
B15: LC3A_3_1435 (protein)
chain: MEELEEEAEEVLEEIGASEEAKEAVLRIVRIALEAGEEEEVEELIEVLKKAKNVPSEEVLEAAERALRKIEEEGKPVEEVLRELIEELRVLALEQEIEEL
B16: LC3A_free_46_2334 (protein)
chain: TLVVVEVDVLAPDRATAEAFVADLEARIRARLAEAGIDAEVEVELEEGPDGKTFRVTVKVRLKDPEADPQEVADLVVDAIDESAEEHGLSYIISVEIIEE
B17: LC3A_3_1443 (protein)
chain: SEEILKEAKEVAEKIGLSPEAIKAFLELIKLALEAGEEEEAKELIKVLEESKDVESEDILKIAEEALRRIKEEGVSIKEAIEEAIEELRVLRLEKEIEEL
B18: LC3A_28_972 (protein)
chain: SELDKELEKALKEAKEAAKAGEPPVIVLKVPGSKDPEDTEKVIKALEEIAEILKDVKGAAIIIDIDGGVTQEHQNKIIDAAEEIEKKYPNVTVIIALEEQ
B19: LC3A_28_737 (protein)
chain: SAIEENLKKAIAEAKAAAAAGESKVITITVPGTANEEDIEKVIKALEEIAEILKDVKDQAIIIDIDGKLDPELLKKLMDKADEIEKKYPNVTVIIALDEE
B20: LC3A_3_1837 (protein)
chain: LEEEREALLKALEEAGHSQETLDAVQRTIDALLAKGYEEAARTFIELLRENIHLPSELILELAQEVLELVETEDLSEEELTEEIKKLFRLYKNEYEIEEL
B21: LC3A_132_302 (protein)
chain: EEELAKELIEIAKEALRIAKEDPEKVEEVLKLLEEIEKLLKKLEKEVSPELAAKTFEEVEDILIELSRIAAKKGKDEVADKAFALAAEAAQLASDARAKI
B22: LC3A_free_39_2233 (protein)
chain: MEEELEKLIKEVAKEAGVDYEYVKKKIKEIQEVAGLSLEQMLEIVKALLEAVKAGADAEEILDRMLEIAKKLKEEGKSPEEILEAILEEIEDARNLIPLD
B23: LC3A_28_1047 (protein)
chain: SELEENAEKAIAEARKQLEQGEEAVVTLKVPDMPTEEAVRIFRETLERLIALSKEYGGKKISVVVDFDGDQETFDAIVDIAEEAEKADPNLTVIVALSEE
B24: LC3A_28_888 (protein)
chain: SEALESAKKALEEVEKAVAAGDQSPLVLEVKAPSTEEDTEKFIELLEKIAEAASKLSKVTIIIDISEEVSQENKDKIIDKAEEIEKKYPNVTVIIALPES
B25: LC3A_28_998 (protein)
chain: MEIEEQLKKALAEAKAAAAAGEPTVITINVPGDADEEDIERVIKTMEEIAEILKDVKGSAIVIDVDGKLKQEYLDRLLDKAEEIEKKYPNVTVIIALDED
B26: LC3A_3_1527 (protein)
chain: FEEIRKEILELLKEAGADPETIKTAEEALDLLEERGYEEAAKTFLEEVKELAGISPETLAAFVEDVLELLKTEDLDEEELSERIKEIARIERNAAEIEEL
B27: LC3A_free_39_2258 (protein)
chain: AEARRAAALARLEELAAKASPEVRAAVLALAEEIRDDVEALERLTELLERALKKGPEVVAILGEFAKEAVARIRAGAPREEAVEEMFKLAEAAIEIEEID
B28: LC3A_28_1006 (protein)
chain: SALEKQLKEALEQARKAAAAGEPVVITITVGGDATEEDIKKVIEAMKEIAEILKDIPGSAIIIDIDSKLSEEHKNKLIDAAEEIEEKYPNITVIIALDED
B29: LC3A_16_529 (protein)
chain: SAEHEETLALFSKALNALETDPEAAIAELAKIDPEAAAKARAALEAGKPKSELAKIFAETVRKYIEENKDELSEEELTLLEMIAESFDLLSELALVREEK

This assay deals with MAP1LC3A, Q9H492. The assay is described as follows: median log2 fold change of GCK-ALFA target abundance (FLAG IP / Myc IP barcode read proportion) (log2 ratio); each designed protein is fused to an ALFA-tag nanobody in HEK293 cells to bring the named protein to FLAG-tagged glucokinase (GCK); Myc marks an untargeted standard; higher = target protein stabilised (more abundant). The conditions noted are these: target protein: 3xFLAG-MCP-GCK-ALFA reporter; HEK293 landing pad (RPLP). The procedure, abridged:
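HEK293 landing-pad cells received a recombined binder library fused to the ALFA nanobody and were induced with 2 μg mL^−1 doxycycline, then transfected with a plasmid encoding a FLAG-tagged target and a Myc-tagged standard. Lysates were collected after 48 h for anti-FLAG and anti-Myc immunoprecipitation, and the circular RNA barcodes were reverse transcribed, amplified and sequenced. Target abundance for each binder is the median log2 ratio of FLAG to Myc barcode read proportions. Barcodes had to reach a proportion of at least 10^−7 in both replicates, each binder needed at least 3 barcodes per replicate, a pseudocount of 10^−6 was applied, and the two replicates were pooled.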
In the case of B1, the “median log2 fold change” value was 0.0933.

For the molecule B2, the “median log2 fold change” value was found to be 0.293.

On to B3, for which the “median log2 fold change” value was 0.184.

In the case of B4, the “median log2 fold change” value is -0.371.

On to B5, for which the “median log2 fold change” value was 0.0383.

In the case of B6, the “median log2 fold change” value is 0.195.

On to B7, for which the “median log2 fold change” value was 0.0897.

For B8, the “median log2 fold change” value was found to be 0.392.

As to B9, the “median log2 fold change” value is -0.561.

In the case of B10, the “median log2 fold change” value was 0.0965.

Turning to B11, the “median log2 fold change” value turned out to be 0.272.

For B12, the “median log2 fold change” value was -0.313.

B13: the “median log2 fold change” value was -0.0799.

Turning to B14, the “median log2 fold change” value was determined as 0.097.

Turning to B15, the “median log2 fold change” value was found to be 0.138.

As for B16, the “median log2 fold change” value is 0.0611.

For B17, the “median log2 fold change” value amounted to 0.45.

For the molecule B18, the “median log2 fold change” value worked out at 0.00741.

With B19, the “median log2 fold change” value was 0.118.

In the case of B20, the “median log2 fold change” value was -0.0141.

On to B21, for which the “median log2 fold change” value is 0.228.

For the molecule B22, the “median log2 fold change” value came to 0.261.

As for B23, the “median log2 fold change” value is -0.153.

Turning to B24, the “median log2 fold change” value was found to be 0.0255.

For the molecule B25, the “median log2 fold change” value is -0.431.

Consider B26, for which the “median log2 fold change” value is 0.345.

As to B27, the “median log2 fold change” value stood at 0.28.

Regarding B28, the “median log2 fold change” value was -0.0818.

Consider B29, for which the “median log2 fold change” value worked out at 0.0209.
